Out of some 310,000 compounds screened, about 2,200 (0.71%) showed an effect of 50% or more. The effect is printed as a negative number. This is one part of the list.
The molecules below were run against human ether-à-go-go-related gene (hERG) potassium channel (human, UniProt Q12809) (assay: primary screen, population patch clamp on CHO cells stably expressing hERG).
Sequence of human ether-à-go-go-related gene (hERG) potassium channel (Q12809 whole entry, looked up): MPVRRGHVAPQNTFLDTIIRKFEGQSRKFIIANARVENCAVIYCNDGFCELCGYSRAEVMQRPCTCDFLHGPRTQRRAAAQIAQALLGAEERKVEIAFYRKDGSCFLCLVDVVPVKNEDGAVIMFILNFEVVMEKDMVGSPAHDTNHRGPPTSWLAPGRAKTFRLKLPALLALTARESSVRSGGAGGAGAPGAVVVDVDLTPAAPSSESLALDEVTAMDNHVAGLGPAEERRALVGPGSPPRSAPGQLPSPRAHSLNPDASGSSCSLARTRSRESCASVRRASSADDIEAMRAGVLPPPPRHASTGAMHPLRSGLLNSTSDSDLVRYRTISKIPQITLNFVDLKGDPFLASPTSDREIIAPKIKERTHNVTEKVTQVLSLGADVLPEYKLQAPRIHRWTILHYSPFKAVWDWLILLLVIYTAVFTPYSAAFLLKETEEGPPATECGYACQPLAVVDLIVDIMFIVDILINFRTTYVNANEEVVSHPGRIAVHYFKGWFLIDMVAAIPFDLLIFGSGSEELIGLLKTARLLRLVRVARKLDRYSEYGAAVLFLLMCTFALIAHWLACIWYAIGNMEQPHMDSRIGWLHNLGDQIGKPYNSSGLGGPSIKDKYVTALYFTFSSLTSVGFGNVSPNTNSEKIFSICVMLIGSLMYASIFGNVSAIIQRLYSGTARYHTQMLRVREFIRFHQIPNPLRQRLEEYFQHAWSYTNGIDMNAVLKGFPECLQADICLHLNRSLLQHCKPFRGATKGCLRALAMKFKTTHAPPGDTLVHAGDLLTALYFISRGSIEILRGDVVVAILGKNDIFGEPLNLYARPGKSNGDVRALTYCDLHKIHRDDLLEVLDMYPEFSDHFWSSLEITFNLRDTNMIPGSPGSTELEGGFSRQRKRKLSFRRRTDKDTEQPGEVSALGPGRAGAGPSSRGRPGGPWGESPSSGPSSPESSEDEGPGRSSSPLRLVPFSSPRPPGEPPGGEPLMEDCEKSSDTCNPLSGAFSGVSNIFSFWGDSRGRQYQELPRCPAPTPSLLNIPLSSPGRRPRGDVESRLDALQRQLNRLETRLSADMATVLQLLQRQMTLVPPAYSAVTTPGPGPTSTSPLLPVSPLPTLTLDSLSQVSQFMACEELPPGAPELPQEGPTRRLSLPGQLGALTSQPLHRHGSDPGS

| Compound | hERG current change (%, negative = inhibition) at 1uM [%] |
| --- | --- |
| CC(CC(=O)O)NCC1COc2ccccc2O1 (stereo not shown) | 11.4 |
| Cc1cnc(C(=O)Nc2cc(S(=O)(=O)N3CCOCC3)ccc2N2CCN(C)CC2)cn1 | 3.2 |
| COC(=O)c1ccccc1C(=O)N1CCOCCN(C(=O)c2ccccc2C(=O)OC)CCOCC1 | 10.3 |
| Br.Cc1ccc(C2Cc3cc(O)c(O)cc3CN2)cc1 (stereo not shown) | 13.4 |
| CCOc1ccc2nc(NCCNS(=O)(=O)c3ccccc3)c(C#N)cc2c1 | 10.2 |
| CC(C)(C)c1ccc(C(=O)Nc2cccc(C(=O)N3CCOCC3)c2)cc1 | -15.7 |
| CC(C)(NC(=O)N1CCCC1)c1cccc(C(C)(C)NC(=O)N2CCCC2)c1 | 7.35 |
| Cc1cccc(CNC(=O)CCCn2nc(C)c3c(C)n(-c4ccccc4)nc3c2=O)c1 | 11.2 |
| CN(CCc1ccccn1)C1CCCN(S(=O)(=O)c2ccccc2Cl)C1 (stereo not shown) | -5.21 |
| O=C(COC(=O)c1cccc(Cl)c1)NC1CCCCCCC1 | 4.7 |
| O=S(=O)(c1ccccc1)c1nc(-c2ccco2)oc1N1CCCCC1 | 6.76 |
| CCCN(CC(=O)Nc1ccccc1C)C(=O)c1cn2ccccc2n1 | 7.74 |
| CC(C)C(C)(C#N)NC(=O)CSc1nc2scc(-c3ccco3)c2c(=O)n1-c1ccccc1 (stereo not shown) | 13.5 |
| CN(Cc1cccs1)C(=O)Cc1c[nH]c2ccccc12 | 8.74 |
| CCOC(=O)c1ccccc1-c1csc(N)n1 | 20.6 |
| CCCCN(Cc1cc2cc(C)ccc2[nH]c1=O)C(=O)c1ccccn1 | 0.537 |
| Cc1sc2nc(-c3ccccc3)[nH]c(=O)c2c1-c1ccccc1 | 9.71 |
| Cc1ccc(C)c2[nH]c(=O)c(CCNC(=O)c3cc4ccccc4o3)cc12 | -0.899 |
| COC(=O)c1cc(OC)c(OC)cc1NC(=O)CSc1ccc(C)cc1 | 3.79 |
| COc1ccc(NC(=O)CNC(=O)Cc2ccccc2)cc1OC | 12.7 |
| CCOP(=O)(Cc1ccc(C(=O)CC)o1)OCC | 12.7 |
| CCc1noc(C)c1C(=O)OCC(=O)c1ccccc1OC | 12.7 |
| N#C/C(=C\c1ccncc1)c1ccccn1 | 12.7 |

| Compound | hERG current change (%, negative = inhibition) at 1uM [%] |
| --- | --- |
| Cc1cc(C)nc(SCC(=O)Oc2ccc3oc(=O)cc(C)c3c2)n1 | 7.52 |
| Cc1cc(C)c2nc(N3CCC(C(=O)NCCCN4CCCC4=O)CC3)sc2c1 | 3.19 |
| CCOC(=O)c1csc(-c2sccc2Br)n1 | 4.39 |
| COc1ccc(OC)c2sc(Cl)nc12 | -0.621 |
| COc1ccc(CCn2c(-c3cccc([N+](=O)[O-])c3)nc3nc4ccccc4nc32)cc1OC | 12.8 |
| CCCN(CC(=O)Nc1ccccc1C)C(=O)C1CC(=O)N(c2ccc(CC)cc2)C1 (stereo not shown) | 3.1 |
| S=c1nc(C2CCCCC2)n(-c2ccccc2)[nH]1 | 12.6 |
| COc1ccc(CN=C2NN=C(c3cccc(OC)c3)CS2)cc1 | -7.23 |
| C=C(C)CNC(=S)Nc1sc2c(c1C(=O)OCC)CC(C)(C)OC2 | 17.8 |
| Cc1ccc(/C=N/n2cnc3sc4c(c3c2=O)CCCC4)o1 | 6.89 |
| Cc1ccc(-n2c(C)cc(=O)cc2C)cc1[N+](=O)[O-] | 20.1 |
| Cc1ccc(C)c(NC(=S)c2ccccn2)c1 | 14.6 |
| CC(C)CCNC(=O)C(c1ccncc1)N(Cc1cccs1)C(=O)Cn1nnc(-c2ccc(F)cc2)n1 (stereo not shown) | -1.77 |
| CCc1c(C)sc(NC(=O)c2cc(C3CC3)on2)c1C#N | 9.6 |
| Cc1ccc(NC(=O)CN(C)S(=O)(=O)c2ccc(Cl)s2)c(O)c1 | 9.12 |
| COc1ccccc1C(=O)n1nc(C)cc1C | -2.23 |
| COC(=O)CNC(=O)Cn1cnc2sc(C)c(S(=O)(=O)N3CCC(C)CC3)c2c1=O | 2.8 |
| COC(=O)c1ccc2c(c1)S(=O)(=O)NC(=NCc1ccco1)S2 | -9.48 |
| CCCCSc1nnc(CCC)n1N | -1.36 |
| c1ccc(-c2nnc(C(c3ccccc3)c3ccccc3)o2)cc1 | 11.1 |
| CN1CCN(C(=O)c2ccccc2NC(=O)c2ccccc2)CC1 | -1.69 |
| Cc1nc(Nc2ccccc2)sc1C(=O)c1ccc(F)cc1 | 14 |
| CCOc1ccc(CN2CCCC(N3CCN(c4ccc(OC)cc4)CC3)C2)cc1 (stereo not shown) | -21.3 |

| Compound | hERG current change (%, negative = inhibition) at 1uM [%] |
| --- | --- |
| CCOC(=O)c1csc(NC(=O)c2cc3ccccc3o2)n1 | 10.6 |
| O=C(Nc1cccc(F)c1)Nc1ccnn1C1CCN(C(=O)c2ccccn2)CC1 | 5.12 |
| CC(C)(Oc1ccc(Cl)cc1)C(=O)NCC(c1ccco1)N1CCCCC1 (stereo not shown) | 1.95 |
| COc1ccc(C2(O)CC3CCC(C2)N3c2cc(C)nc(-c3ccccc3)n2)cc1 (stereo not shown) | -2.84 |
| Cc1ccc(C(=O)Nc2ccc(C(=O)N3CCCCC3)cc2)o1 | 12.4 |
| Cc1ccc(S(=O)(=O)N2CCN(C(=O)COC(=O)CCOc3ccccc3C)CC2)cc1 | -0.62 |
| COc1ccccc1C(=O)Nc1ccnn1C1CCN(C/C=C/c2ccc(F)cc2)CC1 | -86.9 |
| Cc1ccc(S(=O)(=O)N2CCOCC2)cc1C(=O)OCC(=O)N(Cc1ccccc1)C(C)C | 4.55 |
| C/C(=N\NC(=O)c1ccccc1O)c1ccc(Br)s1 | 11.4 |
| O=C(O)C(=O)O.c1ccc(-c2ccccc2OCCCN2CCCC2)cc1 | -49.4 |
| CC1(C)Cc2ccccc2-c2nc3n(c(=O)c21)CCS3 | 8 |
| O=C(CCc1ccccc1Cl)Nc1cc2c(cc1C(=O)O)OCCCO2 | 14.7 |
| COc1ccc(-c2cc(C(=O)Nc3cc(C)nn3-c3ccccc3)no2)cc1 | -3.81 |
| O=C(CSc1nc2cc(Cl)ccc2c(=O)n1Cc1ccco1)Nc1ccc(S(=O)(=O)N2CCOCC2)cc1 | 13.3 |
| COc1cccc2cc(CC(=O)c3ccc(C)cc3C)c(=O)oc12 | 18.4 |
| O=C(CSc1cn(CC(=O)N2CCCCC2)c2ccccc12)NCC1CCCO1 (stereo not shown) | 3.5 |
| Cc1ccc(Cc2c(C)nc3nc(SCC(=O)NCc4ccco4)nn3c2C)cc1 | 1.97 |
| COc1ccc(CNC(=O)C2CCN(C(=O)c3ccco3)CC2)cc1 | 9.13 |
| CC1(C)Cc2c(sc(NC(=O)c3ccccc3Cl)c2C(=O)O)CO1 | 11.3 |
| O=C(O)C(=O)O.c1cc2c(cc1CCNC1CCCCCC1)OCO2 | 3.23 |
| CCCCn1c(SCC(=O)N2CCOCC2)nnc1-c1cccs1 | 9.56 |
| O=[N+]([O-])c1ccc2c(c1)nnn2-c1ccccc1 | 12.8 |
| CCOC(=O)c1snc(-c2ccc(F)cc2)c1N | 9.39 |

| Compound | hERG current change (%, negative = inhibition) at 1uM [%] |
| --- | --- |
| CC1CCCCC1NC(=O)CSc1nnc(COc2ccc(Cl)cc2)o1 (stereo not shown) | 9.91 |
| COc1cc(OC)c(NC(=O)Cc2cccs2)cc1Cl | 15.5 |
| Cc1ccc(C)c(NC(=O)CN(C)C(=O)c2ccc(S(=O)(=O)N(C)c3ccccc3)cc2)c1 | 4.04 |
| COc1ccccc1N1C(=NC(=O)C2CCCCC2)SC2CS(=O)(=O)CC21 (stereo not shown) | -1.61 |
| Fc1cccc(CNCCc2c[nH]c3ccccc23)c1.O=C(O)C(=O)O | 10 |
| O=C(Nc1ccccc1O)c1nc(Cl)ccc1Cl | 13.8 |
| O=C(O)CNC(=O)CC1S/C(=N/N=C2\CSC(=O)N2)NC1=O (stereo not shown) | 4.74 |
| Nc1nc(-c2ccc(Oc3ccccc3)cc2)cs1 | 5.75 |
| CSCCC(NC(=O)c1cccc(S(=O)(=O)N2CCOCC2)c1)C(=O)Nc1ccc(F)cc1 (stereo not shown) | -0.571 |
| Cc1ccc2c(COC(=O)c3ccccc3Br)cc(=O)oc2c1 | 16 |
| COCCNC(=O)C(=O)Nc1cc2c3c(c1)C(C)C(=O)N3CCC2 (stereo not shown) | 16.6 |
| COC(=O)C1=C(N)OC2=C(C(=O)CC(C)(C)C2)C1c1ccccc1OC (stereo not shown) | 7.24 |
| COc1ccc(/C=N\NC(=O)c2ccc(=O)[nH]n2)cc1O | 16.7 |
| O=C(NCc1ccccc1)C1CC2CCCC(C1)C2=O (stereo not shown) | 9.84 |
| CCOC(=O)CSc1nnc([C@@H](NC(=O)OC(C)(C)C)C(C)C)o1 | 16.5 |
| CCNc1nc(NC#N)nc(SCC(=O)OCC)n1 | 7.19 |
| O=C(/C=C/c1ccc(Cl)cc1)N1CCN(Cc2ccccc2)CC1 | -12.8 |
| CCOc1ccc(CSCCNC(=S)Nc2ccccc2)cc1 | -3.73 |
| CC(=NCCCN1CCOCC1)c1c(O)n(Cc2ccccc2)c(=O)[nH]c1=O | -4.14 |
| CCN(CC)CCOCCOc1ccc(Cl)c2ccccc12 | 0.302 |
| COc1ccc(C(=O)N2CCN(C)C(=O)[C@@H]2C)cc1OC1CCN(C(C)C)CC1 | 3.72 |
| COc1cccc(CN2CCC(C(=O)N3CCC(C)CC3)CC2)c1.O=C(O)C(=O)O | 10.5 |

— paper PMC4336329 (PLoS ONE, 2015)
